The chains are these.
B1: tRNA (parent)
chain: CUCUCGGUAGCCAAGUUGGUUUAAGGCGCAAGACUUUAAUUUAUCACUACGAAAUCUUGAGAUCGGGCGUUCGACUCGCCCCCGGGAGAUUUUUUCCUCGAGCAA

Variants at the floor of the assay are shown more often than the library holds them.

This series covers variants of B1. Kind of series: nonsense suppression (GFP-seq) (ratio to wild type); higher = more function; SUP4oc tRNA, yeast GFP reporter sort-seq. Summed up:
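Nonsense suppression (GFPSEQ) is the median GFP/RFP ratio of each sorting bin, weighted by the variant's estimated share of cells in that bin and expressed relative to the unmutated parent tRNA. Yeast strains carried genome-integrated variants of an ochre-suppressor tRNA from a library with ~3% random mutations, plus a galactose-driven GFP ochre reporter and RFP, and were grown in raffinose/galactose medium containing 80 mg/L adenine. Cells were sorted into GFP/RFP bins, each bin was Illumina-sequenced (phred ≥30), and variants were kept only with ≥100 reads and ≥30 cells.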
As to A30U A54G G67U C82A, the nonsense suppression is at most 0.026.
A9G A13C C34A G85A: the nonsense suppression is at most 0.026.
Regarding A31G C68U G78C G85C, the nonsense suppression was at most 0.026.
On to G25U C34G U58A, for which the nonsense suppression was at most 0.026.
G25U U55A: the nonsense suppression is at most 0.026.
Regarding G66A C77A, the nonsense suppression was at most 0.026.
With U4A A30U A60U, the nonsense suppression was at most 0.026.
Under C12A A23C G73C stands at most 0.026; under A23U G65A, at most 0.026; under C11G G73A G84U, at most 0.026.
As to U16G G66A C75U, the nonsense suppression was at most 0.026.
As for C3A A9G C64G, the nonsense suppression is at most 0.026.
Under A13U C72G U76A stands at most 0.026.
For G7U G65A, the nonsense suppression was at most 0.026.
As for C12G U55C U57G, the nonsense suppression was at most 0.026.
In the case of G6U G78C, the nonsense suppression is at most 0.026.
Turning to C5A A62G, the nonsense suppression was at most 0.026.
For the variant C5G A14G G15A, the nonsense suppression is at most 0.026.
In the case of A31G G61A G69U, the nonsense suppression is at most 0.026.
For U2C A24G A31C A60C C82A G85C, the nonsense suppression was at most 0.026.
As to C29U C64U, the nonsense suppression is 0.035.
Turning to A13G C27A C29G A33U U76C G86U, the nonsense suppression is at most 0.026.
As to U71G G84U G88A, the nonsense suppression is at most 0.026.
As to U2C G78C, the nonsense suppression is at most 0.026.
In the case of U20A U57A it was at most 0.026; in that of U8G G59U, at most 0.026; in that of U2C C5G A31G, at most 0.026.
Regarding G7A C11A U70C, the nonsense suppression was at most 0.026.
With U2C A89U, the nonsense suppression is at most 0.026.
In the case of C5A U16A A62U U71C G73A it was at most 0.026; in that of G10C A54C G61U G67U C72G, at most 0.026.
Turning to G28A A30G C34U U55A U58G A87U, the nonsense suppression was at most 0.026.
In the case of U21C U58G C79A, the nonsense suppression is at most 0.026.
Take G7A U35G G59A: the nonsense suppression was at most 0.026.
Take A30G A54C G61C: the nonsense suppression was at most 0.026.
Turning to U4G C12A G69U C81A, the nonsense suppression was at most 0.026.
Consider C5G C75U, for which the nonsense suppression is at most 0.026.
Turning to A9C U21C A62C C77A, the nonsense suppression is at most 0.026.
With U4G U8A G66C, the nonsense suppression was at most 0.026.
Take A9C G18A U76C: the nonsense suppression is at most 0.026.
On to C3G C5U, for which the nonsense suppression is at most 0.026.
C3U C83U: the nonsense suppression is at most 0.026.
As to G25C A62G U76A, the nonsense suppression was at most 0.026.
On to G7C U22C G26A, for which the nonsense suppression is at most 0.026.
In the case of C56G U70A it was at most 0.026; in that of C5U C34U, at most 0.026.
As to C3G A30C A54U, the nonsense suppression is at most 0.026.
On to G86U G88C, for which the nonsense suppression is at most 0.026.
On to G25U A89U, for which the nonsense suppression was at most 0.026.
For the variant C64G G67C C81G, the nonsense suppression is at most 0.026.
For G18U G19C G59U G66A, the nonsense suppression was at most 0.026.
Under G6U U63G U71C G85U A89C stands at most 0.026; under A23U A24G, at most 0.026.
Under C3G C5G G6U A24U C72G A74C C83A stands at most 0.026; under C3A A54C G73C A74C, at most 0.026.
Under A24C A33G C64G G69U stands at most 0.026; under U70G C75G, at most 0.026; under U16A U20A A30G G61C U76C, at most 0.026.
G7C C12G C34G U55A: the nonsense suppression was at most 0.026.
For U70G C81U A87U, the nonsense suppression was at most 0.026.
As to U21A C72G C77G A89C, the nonsense suppression was at most 0.026.
For A9U G28A C75U, the nonsense suppression is 0.0978.
With C1U A9U U20A G28U, the nonsense suppression is at most 0.026.
For C11A C29U C34G G84U, the nonsense suppression was at most 0.026.
In the case of C29U C81G it was at most 0.026; in that of U8G A33C U71A C75G U76A, at most 0.026; in that of G25C U35A C72A C81A, at most 0.026.
As for C12A A74U, the nonsense suppression was at most 0.026.
Regarding C11A A14U, the nonsense suppression was at most 0.026.
Turning to C5U U22G C34A, the nonsense suppression was at most 0.026.
A14G U35A: the nonsense suppression is at most 0.026.
C29U U58C A60G U71G: the nonsense suppression is at most 0.026.
In the case of U2A C5G it was at most 0.026; in that of U4A G84C, at most 0.026.
In the case of G61C U76C C81A it was at most 0.026; in that of U8G C34A, at most 0.026.
On to U22G G25U G67A C75G, for which the nonsense suppression is at most 0.026.
As for G69U G73A C83A, the nonsense suppression was at most 0.026.
In the case of U21C C56G it was at most 0.026; in that of U8G U57A A62U, at most 0.026.
As for G10A C12U A13U C75A, the nonsense suppression was at most 0.026.
C3U A14G U21C G67C: the nonsense suppression is at most 0.026.
In the case of U21A C56A G59A it was at most 0.026; in that of U22C G25C A62G, at most 0.026; in that of A14G C80U, at most 0.026.
As to G7A C34U, the nonsense suppression was at most 0.026.
Take G10U A13C: the nonsense suppression stood at 0.0296.
Under C5U G7C A14C G88A stands at most 0.026; under G25U C64G G65C, at most 0.026; under A9U A14C G69U C83G G84A, at most 0.026.
On to A23C A60U G85A, for which the nonsense suppression is at most 0.026.
In the case of A13C C29G C75U, the nonsense suppression is at most 0.026.
Under U55A U71G stands at most 0.026; under A14U C27A G78C, at most 0.026; under A33C G84A, at most 0.026.
As to A9C U16C C56G C81A, the nonsense suppression is at most 0.026.
On to A14G G19U G86C, for which the nonsense suppression is at most 0.026.
In the case of U22A C34G U55C G69A, the nonsense suppression was at most 0.026.
Regarding A14G C27A U35A, the nonsense suppression was at most 0.026.
Turning to C1G C27U U70G A74C, the nonsense suppression is at most 0.026.
As to C1A G7C G66A, the nonsense suppression is at most 0.026.
With C3U A60C C68U A74C, the nonsense suppression is at most 0.026.
For the variant A14C G15C C56U, the nonsense suppression is at most 0.026.
As to U22C G25C A31G C64G G67A C77A, the nonsense suppression was at most 0.026.
Turning to C1G A14C U63A, the nonsense suppression was at most 0.026.
For the variant C56A A74C C75U, the nonsense suppression is at most 0.026.
In the case of U8G A30G C64U C75U G86C, the nonsense suppression was at most 0.026.
In the case of U8A A23G G65C it was at most 0.026; in that of A14U A30G U55A, at most 0.026.
Under C3A U35G C81A G88A stands at most 0.026.
Take C1U G6U G86A: the nonsense suppression is at most 0.026.
As for A13U U70C U71G A74U, the nonsense suppression is at most 0.026.
As for A14G G67U, the nonsense suppression was at most 0.026.
For A9G U55C G86U, the nonsense suppression was at most 0.026.
Consider U8A G18C C27G, for which the nonsense suppression was at most 0.026.
For A24G G59A, the nonsense suppression was at most 0.026.
C3G A23U C77G: the nonsense suppression is at most 0.026.
In the case of G7U U8G G19U U21C U35A A74G G88U it was at most 0.026; in that of C5G C72G G85C A89G, at most 0.026.
In the case of U20G G59C U76C it was at most 0.026; in that of U76A C77U G88U, at most 0.026.
For the variant G69C C83A, the nonsense suppression is at most 0.026.
For C1A U35A, the nonsense suppression is at most 0.026.
As for C12A U22G C81G, the nonsense suppression is at most 0.026.
U71C C80G: the nonsense suppression is at most 0.026.
For the variant G28U G69U C81G, the nonsense suppression was at most 0.026.
For the variant A30U C82U A87G, the nonsense suppression is at most 0.026.
Regarding G26A A87G, the nonsense suppression is at most 0.026.
As to G7U U63G U71A, the nonsense suppression was at most 0.026.
U20C C56U A89G: the nonsense suppression was at most 0.026.
Take G67C C83U: the nonsense suppression is at most 0.026.
As to C34G C80A A89G, the nonsense suppression is at most 0.026.
G10C C27A U57G G69A: the nonsense suppression is at most 0.026.
Regarding G73C G88U, the nonsense suppression is at most 0.026.
Take C3A G28C A54U U55A U57C C68G U76A: the nonsense suppression is at most 0.026.
G25A G69C G73A: the nonsense suppression was at most 0.026.
Under U2A C75A stands at most 0.026; under U8G C72A, at most 0.026; under G66C A74C, at most 0.026.
For A9U U55C G59U G61C, the nonsense suppression is at most 0.026.
Take U4A C29G U70C C79A G86C A89G: the nonsense suppression is at most 0.026.
In the case of C1A G6C U16G C56U A74C it was at most 0.026; in that of G19U A62G, at most 0.026.
In the case of A9U G32C A62G it was at most 0.026; in that of C11U U55G U57C C75U, at most 0.026.
For the variant A24G C75U, the nonsense suppression was determined as 0.185.
In the case of A30G U76G it was at most 0.026.
For G15U U17C A60U, the nonsense suppression was at most 0.026.
Regarding C11A C81U, the nonsense suppression was at most 0.026.
Consider A9G A24U G66U C68U G78A, for which the nonsense suppression is at most 0.026.
Under U4A G7C G15C G78C G86U stands at most 0.026; under U35C U71G, at most 0.026.
In the case of G26C C80U it was at most 0.026.
On to C12U A30C C83U, for which the nonsense suppression is at most 0.026.
For the variant A14U U76G, the nonsense suppression was at most 0.026.
Regarding A13U U20C C81G G84A, the nonsense suppression is at most 0.026.
In the case of U4G C5U U22C U55A U76G, the nonsense suppression is at most 0.026.
U21A G28C: the nonsense suppression was found to be 0.495.
In the case of A60U G67A it was 0.0457; in that of A14G A31C C72G, at most 0.026.
On to A24U A62C, for which the nonsense suppression is at most 0.026.
A33G C81A: the nonsense suppression was at most 0.026.
Turning to U16G U17C G67U, the nonsense suppression is at most 0.026.
A54C G61A: the nonsense suppression stood at 0.334.
With C1G G66U, the nonsense suppression was at most 0.026.
As to U70G U76C G86A, the nonsense suppression was at most 0.026.
G10C U20C G66A C82G: the nonsense suppression is at most 0.026.

The values above are taken from the RNAGym collection of RNA variant scans (doi:10.1101/gad.245936.114).
